In the supplement of paper PMC10724272:

Each test system was assayed with OC(Cn1cncn1)(Cn1cncn1)c1ccc(F)cc1F [fluconazole] (assay: CLSI broth microdilution.).

Test System | MIC
Candida tropicalis isolate 359 (ERG11 copies: 2, Erg11p: no key change) | 8 mg/L [R]
Candida tropicalis isolate 156 (ERG11 copies: 2, Erg11p: no key change) | 2 mg/L [S]
Candida tropicalis isolate 40 (ERG11 copies: 2, Erg11p: Y132F, S154F (homozygous)) | 32 mg/L [R]
Candida tropicalis isolate 161 (ERG11 copies: 2, Erg11p: no key change) | 2 mg/L [S]
Candida tropicalis isolate 84 (ERG11 copies: 12, Erg11p: Y132F, S154F (homozygous)) | 512 mg/L [R]
Candida tropicalis isolate 429 (ERG11 copies: 8, Erg11p: Y132F, S154F (heterozygous)) | 512 mg/L [R]
Candida tropicalis isolate 167 (ERG11 copies: 6, Erg11p: Y132F, S154F (heterozygous)) | 256 mg/L [R]
Candida tropicalis isolate 364 (ERG11 copies: 2, Erg11p: no key change) | 0.5 mg/L [S]
Candida tropicalis isolate 332 (ERG11 copies: 2, Erg11p: no key change) | 2 mg/L [S]

The test systems below were run with C[C@@H](c1ncncc1F)[C@](O)(Cn1cncn1)c1ccc(F)cc1F [voriconazole] (assay: CLSI broth microdilution.).

Test System | MIC
Candida tropicalis isolate 188 (ERG11 copies: 2, Erg11p: no key change) | 0.03 mg/L [S]
Candida tropicalis isolate 275 (ERG11 copies: 2, Erg11p: Y132F, S154F (heterozygous)) | 1 mg/L [R]
Candida tropicalis isolate 247 (ERG11 copies: 2, Erg11p: no key change) | 0.015 mg/L [S]
Candida tropicalis isolate 225 (ERG11 copies: 2, Erg11p: no key change) | 0.12 mg/L [S]
Candida tropicalis isolate 119 (ERG11 copies: 2, Erg11p: no key change) | 0.06 mg/L [S]
Candida tropicalis isolate 407 (ERG11 copies: 2, Erg11p: no key change) | 0.5 µg/mL
Candida tropicalis isolate 153 (ERG11 copies: 2, Erg11p: no key change) | 0.12 mg/L [S]
Candida tropicalis isolate 229 (ERG11 copies: 2, Erg11p: no key change) | 0.12 mg/L [S]
Candida tropicalis isolate 239 (ERG11 copies: 2, Erg11p: no key change) | 0.06 mg/L [S]
Candida tropicalis isolate 420 (ERG11 copies: 2, Erg11p: G464S (heterozygous)) | 1 mg/L [R]
Candida tropicalis isolate 198 (ERG11 copies: 7, Erg11p: Y132F, S154F (heterozygous)) | > 8 mg/L [R]
Candida tropicalis isolate 109 (ERG11 copies: 2, Erg11p: no key change) | 0.06 mg/L [S]
Candida tropicalis isolate 134 (ERG11 copies: 2, Erg11p: no key change) | ≤ 0.008 mg/L [S]
Candida tropicalis isolate 33 (ERG11 copies: 2, Erg11p: no key change) | 0.12 mg/L [S]
Candida tropicalis isolate 249 (ERG11 copies: 2, Erg11p: no key change) | 0.06 mg/L [S]
Candida tropicalis isolate 179 (ERG11 copies: 6, Erg11p: Y132F, S154F (heterozygous)) | ≥ 8 mg/L [R]
Candida tropicalis isolate 68 (ERG11 copies: 2, Erg11p: no key change) | 0.12 mg/L [S]
Candida tropicalis isolate 22 (ERG11 copies: 2, Erg11p: no key change) | 0.25 µg/mL

Test System | MIC
Candida tropicalis isolate 56 (ERG11 copies: 2, Erg11p: Y132F, S154F (heterozygous)) | ≥ 8 mg/L [R]
Candida tropicalis isolate 42 (ERG11 copies: 8, Erg11p: Y132F, S154F (heterozygous)) | ≥ 8 mg/L [R]
Candida tropicalis isolate 203 (ERG11 copies: 3, Erg11p: Y132F, S154F (heterozygous)) | 4 mg/L [R]
Candida tropicalis isolate 248 (ERG11 copies: 2, Erg11p: no key change) | 0.5 µg/mL
Candida tropicalis isolate 184 (ERG11 copies: 2, Erg11p: no key change) | 0.06 mg/L [S]
Candida tropicalis isolate 400 (ERG11 copies: 2, Erg11p: no key change) | 0.25 µg/mL
Candida tropicalis isolate 81 (ERG11 copies: 2, Erg11p: no key change) | 0.12 mg/L [S]
Candida tropicalis isolate 18 (ERG11 copies: 9, Erg11p: Y132F, S154F (heterozygous)) | ≥ 8 mg/L [R]
Candida tropicalis isolate 359 (ERG11 copies: 2, Erg11p: no key change) | 0.5 µg/mL
Candida tropicalis isolate 156 (ERG11 copies: 2, Erg11p: no key change) | 0.5 µg/mL
Candida tropicalis isolate 40 (ERG11 copies: 2, Erg11p: Y132F, S154F (homozygous)) | 2 mg/L [R]
Candida tropicalis isolate 161 (ERG11 copies: 2, Erg11p: no key change) | 0.12 mg/L [S]
Candida tropicalis isolate 84 (ERG11 copies: 12, Erg11p: Y132F, S154F (homozygous)) | ≥ 8 mg/L [R]
Candida tropicalis isolate 429 (ERG11 copies: 8, Erg11p: Y132F, S154F (heterozygous)) | ≥ 8 mg/L [R]
Candida tropicalis isolate 167 (ERG11 copies: 6, Erg11p: Y132F, S154F (heterozygous)) | ≥ 8 mg/L [R]
Candida tropicalis isolate 364 (ERG11 copies: 2, Erg11p: no key change) | 0.03 mg/L [S]
Candida tropicalis isolate 332 (ERG11 copies: 2, Erg11p: no key change) | 0.12 mg/L [S]

Each test system was assayed with CCCCCOc1ccc(-c2cc(-c3ccc(C(=O)N[C@H]4C[C@@H](O)[C@@H](O)NC(=O)[C@@H]5[C@@H](O)[C@@H](C)CN5C(=O)[C@H]([C@H](O)CC(N)=O)NC(=O)[C@H]([C@H](O)[C@@H](O)c5ccc(O)c(OS(=O)(=O)O)c5)NC(=O)[C@@H]5C[C@@H](O)CN5C(=O)[C@H]([C@@H](C)O)NC4=O)cc3)no2)cc1 [micafungin] (assay: CLSI broth microdilution.).

Test System | MIC
Candida tropicalis isolate 188 (ERG11 copies: 2, Erg11p: no key change) | 0.015 mg/L [S]
Candida tropicalis isolate 275 (ERG11 copies: 2, Erg11p: Y132F, S154F (heterozygous)) | 0.03 mg/L [S]
Candida tropicalis isolate 247 (ERG11 copies: 2, Erg11p: no key change) | 0.008 mg/L [S]
Candida tropicalis isolate 225 (ERG11 copies: 2, Erg11p: no key change) | 0.03 mg/L [S]
Candida tropicalis isolate 119 (ERG11 copies: 2, Erg11p: no key change) | 0.06 mg/L [S]
Candida tropicalis isolate 407 (ERG11 copies: 2, Erg11p: no key change) | 0.03 mg/L [S]
Candida tropicalis isolate 153 (ERG11 copies: 2, Erg11p: no key change) | 0.03 mg/L [S]
Candida tropicalis isolate 229 (ERG11 copies: 2, Erg11p: no key change) | 0.03 mg/L [S]
Candida tropicalis isolate 239 (ERG11 copies: 2, Erg11p: no key change) | 0.06 mg/L [S]
Candida tropicalis isolate 420 (ERG11 copies: 2, Erg11p: G464S (heterozygous)) | 0.03 mg/L [S]
Candida tropicalis isolate 198 (ERG11 copies: 7, Erg11p: Y132F, S154F (heterozygous)) | 0.03 mg/L [S]
Candida tropicalis isolate 109 (ERG11 copies: 2, Erg11p: no key change) | 0.03 mg/L [S]
Candida tropicalis isolate 134 (ERG11 copies: 2, Erg11p: no key change) | 0.015 mg/L [S]
Candida tropicalis isolate 33 (ERG11 copies: 2, Erg11p: no key change) | 0.03 mg/L [S]
Candida tropicalis isolate 249 (ERG11 copies: 2, Erg11p: no key change) | 0.03 mg/L [S]
Candida tropicalis isolate 179 (ERG11 copies: 6, Erg11p: Y132F, S154F (heterozygous)) | 0.03 mg/L [S]
Candida tropicalis isolate 68 (ERG11 copies: 2, Erg11p: no key change) | 0.03 mg/L [S]
Candida tropicalis isolate 22 (ERG11 copies: 2, Erg11p: no key change) | 0.015 mg/L [S]

Test System | MIC
Candida tropicalis isolate 56 (ERG11 copies: 2, Erg11p: Y132F, S154F (heterozygous)) | 0.03 mg/L [S]
Candida tropicalis isolate 42 (ERG11 copies: 8, Erg11p: Y132F, S154F (heterozygous)) | 0.06 mg/L [S]
Candida tropicalis isolate 203 (ERG11 copies: 3, Erg11p: Y132F, S154F (heterozygous)) | 0.06 mg/L [S]
Candida tropicalis isolate 248 (ERG11 copies: 2, Erg11p: no key change) | 0.06 mg/L [S]
Candida tropicalis isolate 184 (ERG11 copies: 2, Erg11p: no key change) | 0.015 mg/L [S]
Candida tropicalis isolate 400 (ERG11 copies: 2, Erg11p: no key change) | 0.06 mg/L [S]
Candida tropicalis isolate 81 (ERG11 copies: 2, Erg11p: no key change) | 0.03 mg/L [S]
Candida tropicalis isolate 18 (ERG11 copies: 9, Erg11p: Y132F, S154F (heterozygous)) | 0.03 mg/L [S]
Candida tropicalis isolate 359 (ERG11 copies: 2, Erg11p: no key change) | 0.06 mg/L [S]
Candida tropicalis isolate 156 (ERG11 copies: 2, Erg11p: no key change) | 0.03 mg/L [S]
Candida tropicalis isolate 40 (ERG11 copies: 2, Erg11p: Y132F, S154F (homozygous)) | 0.015 mg/L [S]
Candida tropicalis isolate 161 (ERG11 copies: 2, Erg11p: no key change) | 0.06 mg/L [S]
Candida tropicalis isolate 84 (ERG11 copies: 12, Erg11p: Y132F, S154F (homozygous)) | 0.06 mg/L [S]
Candida tropicalis isolate 429 (ERG11 copies: 8, Erg11p: Y132F, S154F (heterozygous)) | 0.03 mg/L [S]
Candida tropicalis isolate 167 (ERG11 copies: 6, Erg11p: Y132F, S154F (heterozygous)) | 0.03 mg/L [S]
Candida tropicalis isolate 364 (ERG11 copies: 2, Erg11p: no key change) | 0.015 mg/L [S]
Candida tropicalis isolate 332 (ERG11 copies: 2, Erg11p: no key change) | 0.03 mg/L [S]

MIC of invasive clinical C. tropicalis isolates, CLSI broth microdilution (fluconazole 0.12-256 mg/L, up to 1,024 for the azole-resistant cluster and its neighbour group; other ranges not stated); higher = less susceptible. Call: susceptible or wild type [S] / resistant or non-wild type [R] by CLSI breakpoints or cut-offs; intermediate and dose-dependent carry no call. '<=' and '>=' at the end values are inferred; the source marks only some of them. Isolates are numbered anew.
